Assay [1] addresses T1, FliN-CFP (flagellar motor switch protein FliN) (E. coli) (UniProt P15070).
T1 sequence: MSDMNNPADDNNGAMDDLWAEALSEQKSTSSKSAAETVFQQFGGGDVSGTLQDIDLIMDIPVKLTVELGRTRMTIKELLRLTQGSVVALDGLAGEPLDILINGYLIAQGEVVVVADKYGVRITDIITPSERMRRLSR
In words: FRET or BRET; acceptor photobleaching FRET between YFP and CFP fusions in living wild-type E. coli cells over a growth curve (OD600); cells in tethering buffer on an agarose pad. Background: Bioluminescence resonance energy transfer reports proximity on the nanometre scale.

Sequences of proteins named here, by UniProt entry; tags and fusion partners are left off. A change or cut given only in a name is not applied to a line headed by its entry.
UniProt P0A6Z3: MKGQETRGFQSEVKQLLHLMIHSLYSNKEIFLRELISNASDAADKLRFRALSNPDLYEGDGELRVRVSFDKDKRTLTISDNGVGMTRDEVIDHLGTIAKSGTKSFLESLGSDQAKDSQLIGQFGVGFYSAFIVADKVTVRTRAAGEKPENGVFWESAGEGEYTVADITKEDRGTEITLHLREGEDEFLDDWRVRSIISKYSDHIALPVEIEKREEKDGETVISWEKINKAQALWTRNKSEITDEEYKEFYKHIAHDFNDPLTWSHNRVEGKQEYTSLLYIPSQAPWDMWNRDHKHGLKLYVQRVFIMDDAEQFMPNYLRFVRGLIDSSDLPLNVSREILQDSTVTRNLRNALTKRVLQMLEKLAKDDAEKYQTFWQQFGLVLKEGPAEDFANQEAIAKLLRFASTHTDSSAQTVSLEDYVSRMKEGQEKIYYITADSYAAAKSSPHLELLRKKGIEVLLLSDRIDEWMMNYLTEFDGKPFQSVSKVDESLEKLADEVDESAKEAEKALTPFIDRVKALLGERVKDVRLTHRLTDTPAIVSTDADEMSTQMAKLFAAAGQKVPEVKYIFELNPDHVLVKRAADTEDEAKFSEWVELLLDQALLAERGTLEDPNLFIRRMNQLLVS

In assay [2] the target is T1, FliN-CFP (flagellar motor switch protein FliN) (E. coli). Briefly: FRET or BRET; acceptor photobleaching FRET between YFP and CFP fusions in living E. coli cells of a ΔcbpAΔdnaJ background (no DnaK co-chaperones).
In assay [3] the target is T2, CFP fusion to full-length CheA (E. coli) (UniProt P07363).
T2 sequence: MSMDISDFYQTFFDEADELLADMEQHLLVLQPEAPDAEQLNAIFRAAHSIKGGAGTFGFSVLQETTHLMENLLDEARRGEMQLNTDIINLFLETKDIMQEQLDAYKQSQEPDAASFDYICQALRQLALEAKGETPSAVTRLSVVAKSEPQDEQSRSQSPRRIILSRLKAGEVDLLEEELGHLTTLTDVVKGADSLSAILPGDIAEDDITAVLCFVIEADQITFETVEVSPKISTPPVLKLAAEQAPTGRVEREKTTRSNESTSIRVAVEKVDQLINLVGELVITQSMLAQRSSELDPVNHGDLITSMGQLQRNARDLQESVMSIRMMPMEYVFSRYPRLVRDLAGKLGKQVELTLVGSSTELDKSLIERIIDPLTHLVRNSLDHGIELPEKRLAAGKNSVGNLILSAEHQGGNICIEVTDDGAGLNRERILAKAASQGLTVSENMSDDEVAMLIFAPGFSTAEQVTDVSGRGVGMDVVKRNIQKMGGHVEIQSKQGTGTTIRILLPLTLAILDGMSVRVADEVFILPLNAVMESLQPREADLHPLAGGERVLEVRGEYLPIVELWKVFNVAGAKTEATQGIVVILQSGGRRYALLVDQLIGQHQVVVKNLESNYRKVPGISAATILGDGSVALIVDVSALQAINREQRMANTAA
Briefly: FRET or BRET; acceptor photobleaching FRET in living E. coli cells; panel of chemoreceptor cluster components against HtpG(E34A) (Table S4); also in ΔflhC strains, which lack endogenous flagellar and chemotaxis proteins.

Assay [4] has as its target T3, CheZ (dimeric phosphatase), fluorescent protein fusion (E. coli) (UniProt P0A9H9).
T3 sequence: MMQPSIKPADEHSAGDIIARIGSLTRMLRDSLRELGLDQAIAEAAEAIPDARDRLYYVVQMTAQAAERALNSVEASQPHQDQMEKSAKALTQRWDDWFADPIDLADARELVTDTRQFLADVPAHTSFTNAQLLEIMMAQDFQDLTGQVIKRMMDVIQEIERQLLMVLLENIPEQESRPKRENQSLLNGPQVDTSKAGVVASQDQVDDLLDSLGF
Described as above.

These are yes or no findings as the source states them, for the method shown. Binding seen in cells or lysates may run through a third protein. Some results given as binding are weak or reduced against the parent protein; the word gives no strength. Tags and fused reporters may be left off the sequences shown.

On to “HtpG(E34A)-YFP (from UniProt P0A6Z3 1-624)”, for which the binding entry in assay [1] was “binds”; in assay [2] it was “no binding (condition: in a ΔcbpAΔdnaJ background)”; in assay [3], “binds”; in assay [4] it was “binds”.
As for “HtpG-YFP (E. coli Hsp90, High-temperature protein G) (from UniProt P0A6Z3 1-624)”, the binding entry is given as “binds” in assay [1] and “no binding (condition: in a ΔcbpAΔdnaJ background)” in assay [2].

For the origin of these results see paper PMC3708813.
